The record followed here is PubChem BioAssay AID463173 (ICCB-Longwood Screening Facility, Harvard Medical School, 2010).

Screen size: about 52,000 compounds; about 1,700 (3.3%) were called active. No stated cut-off is given here; in the data, active means survival mostly below about 52% (no sharp cut-off); inactive means mostly above about 56%. Some of the results follow.

This experiment relates to Wild type. The experiment is described as follows: S. aureus survival, RN4220 and DeltatarO strains – OD600, teichoic acid synthesis inhibitors, primary screen (AID 463173). The settings on record: S. aureus RN4220 wild type/DeltatarO growth, OD600, 18 h, stronger effect = lower value, screened at 18.75 µg/mL (by protocol).
For `Cc1cccc(N2CCN(C(=O)c3cn(C4CCCCC4)c(=O)c4c3c3ccccc3n4C)CC2)c1C`, the survival is inactive: 109%.

Regarding `CCN(C(=O)CCc1nc(-c2ccc(C)cc2)no1)c1cc(C)ccc1C`, the survival is active: 0%.

As for `CCCCN(C)CCCNC(=O)c1ccc2nc(N3CCCCC3)sc2c1`, the survival was inactive: 88%.

In the case of `Cc1cccc(OCCSc2nc3ccccc3n2CC(=O)N2CCCCC2)c1C`, the survival is inactive: 51%.

With `CCN(Cc1ccccc1)Cc1c(O)ccc2c(=O)c(-c3ccccc3OC)c(C(F)(F)F)oc12`, the survival is inactive: 87%.

`CC(=O)Nc1nonc1-c1nnc(SCC(=O)Nc2ccc(F)cc2F)n1-c1ccccc1`: the survival is inactive: 22%.

`Cc1c(C)n(Cc2ccccc2)c2ccc(C(=O)NC(C)c3ccccc3)cc12` (centres undefined): the survival is inactive: 83%.

As for `Cc1ccc(Cn2c(CNS(=O)(=O)c3c(C)cc(C)cc3C)nc3cccnc32)cc1`, the survival was inactive: 124%.

As to `CCOC(=O)c1ccc(N2CCN(c3cc(Cl)ccc3C)CC2)c(NC(=O)Nc2cccc(OC)c2)c1`, the survival is inactive: 60%.

On to `CCOCCCNC(=O)C1CCCN(Cc2nc(-c3ccc(CC)cc3)oc2C)C1` (centres undefined), for which the survival was inactive: 84%.

For the compound `CC(C)NC(=O)Cn1cc(C(=O)C(C)C)c2ccccc21`, the survival is inactive: 96%.

Turning to `CCOC(=O)N1CCN(S(=O)(=O)N2CCCC(C(=O)NCc3cc(OC)ccc3OC)C2)CC1` (centres undefined), the survival was inactive: 81%.

Take `COc1ccc(N2CC(NC(=O)/C=C\c3ccc(OC)c(OC)c3)CC2=O)cc1` (centres undefined): the survival was inactive: 65%.

`CCc1ccc(-n2c(SC(CC)C(=O)N(CC)CC)nc3n[nH]c(C)c3c2=N)cc1` (centres undefined): the survival is inactive: 121%.

Turning to `Cc1nc(CC(=O)Nc2ccc(C)c(C)c2)cs1`, the survival was inactive: 80%.

Consider `CCn1ccc2cc(S(=O)(=O)N3CCCN(C(=O)Nc4ccccc4OC)CC3)ccc21`, for which the survival is inactive: 66%.

Take `CCc1ccc(OCC(=O)N(Cc2cccs2)c2ccc(Cl)cc2)cc1`: the survival is inactive: 83%.

Take `COc1ccc(N2CCN(C(CNC(=O)CC(C)C)c3ccc4c(c3)OCO4)CC2)cc1` (centres undefined): the survival was inactive: 83%.

Take `CCc1cccc(CC)c1NC(=O)Cn1nnc2sc(-c3ccccc3)cc2c1=O`: the survival was inactive: 87%.

For the compound `CCCC(=O)Nc1ccc(Cl)c(NC(=O)c2cccnc2Cl)c1`, the survival is inactive: 114%.

On to `CCCCOc1ccc(C2=NC(c3ccncc3)=Nc3ccc(Br)cc3N2)cc1`, for which the survival is active: -4%.

With `CS(=O)(=O)N(CC(=O)N1CCN(Cc2ccc3c(c2)OCO3)CC1)Cc1ccccc1`, the survival was inactive: 102%.

For the compound `Cc1ccc(-c2nc3ccc(Cl)cn3c2Nc2ccc3c(c2)OCCO3)o1`, the survival is inactive: 88%.

Take `COc1ccc(-c2nc(CS(=O)CC(=O)NCc3ccc(F)cc3)c(C)o2)cc1OC` (centres undefined): the survival is inactive: 80%.

As for `Cc1c(Cl)cccc1-n1ncc(C(=O)N2CCc3ccccc3C2)c1C1CCN(C(=O)OC(C)(C)C)CC1`, the survival is inactive: 80%.

`Cc1cccc2cc(C#N)c(SCC(=O)NCC3CCCO3)nc12` (centres undefined): the survival is inactive: 103%.

Regarding `CCOc1ccccc1N(CC)C(=O)Nc1cn(C)c(=O)c2ccccc12`, the survival was inactive: 78%.

Take `COc1ccc(OCC(=O)Nc2ccc(C(=O)OCc3cc(=O)n4nc(C)sc4n3)cc2)cc1`: the survival is inactive: 119%.

As for `CCCCCn1c(=O)[nH]c2cc(C(=O)N3CCN(c4ccccc4)CC3)ccc2c1=O`, the survival was inactive: 85%.

Take `Cc1ccc(/C=C/c2onc(C)c2S(=O)(=O)N2CCC(C(=O)N3CC(C)Oc4ccccc43)CC2)cc1` (centres undefined): the survival was inactive: 135%.

On to `CC1=C(C#N)C(=O)NC(C)(C)C1`, for which the survival is inactive: 108%.

Consider `CCc1ccc(NC(=O)CC2C(=O)N(c3cccc(OC)c3)C(=O)N2Cc2ccco2)cc1` (centres undefined), for which the survival was inactive: 19%.

As to `CCOc1ccccc1NC(=O)Nc1nnc(N(C)Cc2ccccc2)s1`, the survival is inactive: 84%.

Consider `COc1ccc2c(c1)cc1c(=O)n(CC(=O)NC3CCCCC3)nc(C)n12`, for which the survival is inactive: 79%.

Take `Cc1ccc(NC(=O)c2oc3ccccc3c2NC(=O)Cc2cccs2)cc1`: the survival is inactive: 57%.

With `CC(=O)N1CCC(N(C(=O)Nc2ccc(C)c(F)c2)C(C)C)CC1`, the survival was inactive: 83%.

Turning to `COc1cc(Cl)c(NS(=O)(=O)c2ccc3c(c2)CC(C)N3C(=O)C2CCC2)c(OC)c1` (centres undefined), the survival was inactive: 99%.

On to `Cc1ccc(C(Nc2ccccn2)c2ccc3cccnc3c2O)cc1` (centres undefined), for which the survival is active: 6%.

Regarding `CSc1nnc(C2CCCN2)n1C` (centres undefined), the survival is inactive: 102%.

As to `COc1ccccc1NC(=O)CCS(=O)(=O)c1ccc2nc(C)sc2c1`, the survival was inactive: 88%.

Turning to `COc1cc(Cl)c(C)cc1NC(=O)CCc1c(C)nc2cc(-c3cccc(F)c3)nn2c1C`, the survival is inactive: 77%.

Turning to `CCc1c(C)sc2c1CCN(C(=O)Nc1ccccc1C(F)(F)F)C2c1ccccc1` (centres undefined), the survival is inactive: 79%.

As for `Cc1ccccc1NC(=O)c1c(NC(=O)C(C)Oc2cccc(Cl)c2)sc2c1CCCC2` (centres undefined), the survival is inactive: 61%.

In the case of `CCn1c(C(=O)N2CCCC(C(=O)NCCCOC)C2)cc2sccc21` (centres undefined), the survival is inactive: 84%.

With `CC1CC(C)(C)NC(=S)O1` (centres undefined), the survival is inactive: 110%.

For `O=C(CCn1cnc2onc(-c3ccc(F)cc3)c2c1=O)N1CCN(c2ccc(F)cc2)CC1`, the survival was inactive: 98%.

Turning to `COc1ccccc1CNC(=O)CC1N=C2c3ccccc3N=C(SCC(=O)Nc3ccc(F)cc3)N2C1=O` (centres undefined), the survival is inactive: 140%.

Turning to `O=C(c1nc(-c2ccc(Cl)cc2)n2c1CCCCC2)N1CCN(c2ccccc2F)CC1`, the survival is inactive: 68%.

For the compound `COc1cc(NC(=O)c2c(-c3ccc(C)cc3)nnc3ccccc23)cc(OC)c1OC`, the survival is inactive: 97%.

For the compound `Cc1oc2c(c1C(=O)Nc1cccc(Br)c1)C1=NCCN1C=N2`, the survival is inactive: 83%.

Take `Cc1cc2cc(C(c3nnnn3Cc3ccco3)N3CCN(C(=O)c4ccco4)CC3)c(=O)[nH]c2cc1C` (centres undefined): the survival is inactive: 110%.

Consider `COc1ccccc1Nc1nn2c(=O)c3ccc(C(=O)N4CCC(C)CC4)cc3nc2s1`, for which the survival was inactive: 64%.

Turning to `COc1ccc(S(=O)(=O)Nc2cccc(-c3ccc(N4CCOCC4)nn3)c2)cc1F`, the survival is inactive: 63%.

With `O=C(Cn1nc(-c2ccccc2)ccc1=O)NCc1ccc(F)cc1Cl`, the survival is inactive: 129%.

As for `Cc1nc2scc(C)n2c(=O)c1S(=O)(=O)NCc1ccccc1Cl`, the survival is inactive: 168%.

Take `O=C1NN=C(Cc2ccccc2)C1CCO` (centres undefined): the survival was inactive: 101%.

As to `CC1=C(C(=O)OC2CCCC2)C(c2ccc(F)cc2F)CC(=O)N1` (centres undefined), the survival is inactive: 99%.

With `Cc1ccc(CS(=O)(=O)c2cn(CC(=O)N(C)c3ccccc3)c3ccccc23)cc1`, the survival was inactive: 93%.

With `O=C1C2C3c4ccccc4C(c4ccccc43)C2C(=O)N1Cc1ccccn1` (centres undefined), the survival is inactive: 111%.

On to `CC(=O)Nc1ccc(NC(=O)CCCc2nc(-c3ccc(C(C)(C)C)cc3)no2)cc1`, for which the survival was inactive: 82%.

As for `CC(=O)c1ccc(N2C(=O)N(Cc3cccc(C(F)(F)F)c3)c3ccccc3S2(=O)=O)cc1`, the survival is inactive: 77%.

Consider `COc1ccc(N(Cc2cccs2)C(=O)c2ccccc2C)cc1`, for which the survival is inactive: 87%.

As to `Cc1ccc(NC(=O)c2cc(C)nn2-c2ccccc2)cc1`, the survival was inactive: 118%.

Turning to `CC1(C)CC(=O)C2=C(C1)OC(N)=C(C#N)C2c1ccc2c(c1Cl)OCO2` (centres undefined), the survival was inactive: 96%.

As for `CCOc1cc(C(=O)Nc2ccc3oc(-c4ccc(F)cc4Cl)nc3c2)cc(OCC)c1OCC`, the survival was inactive: 70%.

`CCCCNC(=O)CCC(=O)NNc1nc2ccccc2c2nc(-c3ccccc3)nn12`: the survival is inactive: 92%.

With `COC(=O)CN1C(=O)C(C)(C)Oc2ccc(C(=O)Nc3cccc(OC)c3)cc21`, the survival was inactive: 108%.

Consider `COc1cc(C2C(=O)N(C3CCCCC3)CC(=O)N2C2CCCC2)ccc1OC(C)C` (centres undefined), for which the survival is inactive: 85%.

Turning to `O=C(CSc1nc(-c2ccc(F)cc2)cc(C(F)(F)F)n1)NCc1ccccc1`, the survival was inactive: 84%.

On to `COc1ccc(OCC(=O)NCC2(N3CCN(C)CC3)CCCCC2)cc1`, for which the survival was inactive: 84%.

For the compound `Cc1cc(C)c2[nH]c(=O)c(C(c3nnnn3C(C)(C)C)N(CCc3ccc(F)cc3)Cc3ccco3)cc2c1` (centres undefined), the survival is inactive: 117%.

Regarding `O=C(NC1CCCCC1)c1ccc(S(=O)(=O)N2CCCC2)cc1`, the survival was inactive: 104%.

For `CCOC(=O)c1ccc2c(c1)N(Cc1cccc(OC)c1)C(=O)c1ccccc1S2(=O)=O`, the survival was inactive: 99%.

For `Cc1cccc(C(=O)Nc2c3c(nn2-c2ccc(Cl)cc2)CS(=O)(=O)C3)c1`, the survival was inactive: 91%.

On to `O=[N+]([O-])c1cc(-c2nc(-c3ccccc3)no2)ccc1NCC1CCCO1` (centres undefined), for which the survival is inactive: 86%.

`CCOC(=O)c1c(-c2ccccc2)oc2ccc(NS(=O)(=O)c3ccc(OC)cc3)cc12`: the survival is inactive: 66%.

`CC(C)(C)OC(=O)N1CCC(c2c(C(=O)NC3CCN(Cc4ccccc4)CC3)cnn2-c2cccc(F)c2)CC1`: the survival is inactive: 76%.

`CC1CCN(S(=O)(=O)c2ccc(NC(=O)Nc3ccccc3)cc2)CC1`: the survival is inactive: 59%.

With `Cc1ccc(-c2cc(C(=O)NC(C)c3ccccc3)c3ccccc3n2)cc1C` (centres undefined), the survival is inactive: 60%.

Take `CC1CCN(c2ccc(NC(=O)c3cccc(Cl)c3)cc2C(=O)O)CC1`: the survival is inactive: 76%.

With `Cc1ccc2ncc(C(=O)NCc3ccccc3Cl)c(=O)n2c1`, the survival is inactive: 93%.

Turning to `CC(=O)Nc1ccccc1-c1nc2ccccc2n(CC(=O)c2ccc(C)c(C)c2)c1=O`, the survival is inactive: 103%.

With `CCC(CC)C(=O)Nc1ccc(OCc2cc(=O)n3ccsc3n2)cc1`, the survival is inactive: 87%.

Take `COc1ccc(NC(=O)C2CCCN(C(=O)c3cnn(-c4ccc(F)cc4)c3-n3cccc3)C2)cc1` (centres undefined): the survival is inactive: 60%.

For the compound `COc1ccc(NC(=O)CSc2nc3ncccc3[nH]2)c(OC)c1`, the survival is inactive: 119%.

Take `Cn1c(=O)cc(OCC(=O)N2CCN(c3ccccc3)CC2)c2ccccc21`: the survival was inactive: 85%.

For `CN(C)C(=O)CN1CCN(c2ccc(F)cc2)CC1`, the survival was inactive: 100%.

In the case of `COc1ccc(C)cc1NCc1nnc2n1CCCCC2`, the survival was active: -3%.

`O=C(CCCCn1c(=O)c2ccccc2n(Cc2ccc(Cl)cc2)c1=O)NCc1ccccc1Cl`: the survival was inactive: 103%.
